Reference: the supplement of paper PMC7826260
This is one part of the list. One pool of 16,384 single-stranded DNAs met each Rep nickase domain in vitro (3 µM enzyme, 1 h, 37 °C); shown is the middle of each 90-letter strand. Numbers give uncut DNA relative to the enzyme-free pool, as log2; uncut sequences lie near 0, cut ones below; no hit call is given. Because reads are shares of a total, they shift together; uncut strands gain when others are lost, and binding without cutting may add a little.

Key:
Assay in all cases: uncleaved DNA left, log2 of reads against the no-enzyme library (log2 ratio); higher = less cleavage (more negative = more Rep cleavage of the k-mer); sequences stand for … in CTCGTCCG…ACCGGAGA
[1] = test system: T1, Rep nickase domain of Muscovy duck circovirus
T1 sequence (protein, residues 1-111, tag omitted): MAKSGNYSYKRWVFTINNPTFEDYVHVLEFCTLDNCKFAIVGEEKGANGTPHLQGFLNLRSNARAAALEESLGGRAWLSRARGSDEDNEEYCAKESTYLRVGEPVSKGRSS
Protocol: (§1)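 A pool of 90-nt single-stranded DNAs with seven random bases just before the constant AC of the nick site (name = the seven bases) was cut by 3 µM recombinant His6-SUMO-tagged Rep nickase domain (300 nM DNA, 50 mM HEPES pH 8.0, 50 mM NaCl, 1 mM MnCl2, 1 h, 37 °C, three replicates). Uncut DNA was amplified and sequenced.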

[2] = test system: T2, Rep nickase domain of banana bunchy top virus
T2 sequence (protein, residues 1-94, tag omitted): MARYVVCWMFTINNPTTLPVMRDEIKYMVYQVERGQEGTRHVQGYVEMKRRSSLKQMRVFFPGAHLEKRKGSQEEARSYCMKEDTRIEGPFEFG
Protocol: as §1

[3] = test system: T3, Rep nickase domain of cabbage leaf curl virus
T3 sequence (protein, residues 1-116, tag omitted): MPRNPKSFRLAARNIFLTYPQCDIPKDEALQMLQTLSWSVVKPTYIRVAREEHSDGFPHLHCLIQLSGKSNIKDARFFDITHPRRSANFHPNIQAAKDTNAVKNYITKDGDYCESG
Protocol: as §1

[4] = test system: T4, Rep nickase domain of chickpea chlorotic dwarf virus
T4 sequence (protein, residues 1-124, tag omitted): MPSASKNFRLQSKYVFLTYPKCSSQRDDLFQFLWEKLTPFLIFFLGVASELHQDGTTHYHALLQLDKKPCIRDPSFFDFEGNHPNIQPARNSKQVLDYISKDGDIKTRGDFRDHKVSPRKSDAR
Protocol: as §1

[5] = test system: T5, Rep nickase domain of faba bean necrotic yellows virus
T5 sequence (protein, residues 1-98, tag omitted): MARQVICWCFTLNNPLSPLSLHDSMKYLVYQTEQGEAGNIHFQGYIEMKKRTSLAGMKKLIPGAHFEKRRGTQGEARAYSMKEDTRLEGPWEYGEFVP
Protocol: as §1

[6] = test system: T6, Rep nickase domain of maize striate mosaic virus
T6 sequence (protein, residues 1-117, tag omitted): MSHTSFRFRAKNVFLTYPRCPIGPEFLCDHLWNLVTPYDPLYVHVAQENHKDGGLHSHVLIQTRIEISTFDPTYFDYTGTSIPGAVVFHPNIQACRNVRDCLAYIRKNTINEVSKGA
Protocol: as §1

[7] = test system: T7, Rep nickase domain of porcine circovirus 2
T7 sequence (protein, residues 2-116, tag omitted): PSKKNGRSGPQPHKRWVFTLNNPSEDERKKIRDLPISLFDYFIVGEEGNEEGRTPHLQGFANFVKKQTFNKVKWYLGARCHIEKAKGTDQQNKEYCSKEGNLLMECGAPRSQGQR
Protocol: as §1

[8] = test system: T8, Rep nickase domain of tomato yellow leaf curl virus
T8 sequence (protein, residues 1-136, tag omitted): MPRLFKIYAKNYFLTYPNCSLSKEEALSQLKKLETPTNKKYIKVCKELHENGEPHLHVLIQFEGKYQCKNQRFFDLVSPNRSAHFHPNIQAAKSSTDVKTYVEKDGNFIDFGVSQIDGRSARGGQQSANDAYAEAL
Protocol: as §1

[9] = test system: T9, Rep nickase domain of wheat dwarf virus
T9 sequence (protein, residues 1-137, tag omitted): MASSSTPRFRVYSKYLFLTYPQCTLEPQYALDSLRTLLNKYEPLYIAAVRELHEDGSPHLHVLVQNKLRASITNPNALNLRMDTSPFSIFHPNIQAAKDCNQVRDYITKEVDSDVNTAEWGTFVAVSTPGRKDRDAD
Protocol: as §1

Row | Sequence | uncleaved DNA left (log2) [1] | uncleaved DNA left (log2) [2] | uncleaved DNA left (log2) [3] | uncleaved DNA left (log2) [4] | uncleaved DNA left (log2) [5] | uncleaved DNA left (log2) [6] | uncleaved DNA left (log2) [7] | uncleaved DNA left (log2) [8] | uncleaved DNA left (log2) [9]
1 | TGTTAAT | -3.1 | -0.122 | 0.132 | -0.174 | -0.00864 | 0.598 | -3.05 | 0.207 | -0.0302
2 | CTTTCAG | 0.0372 | 0.0298 | -0.655 | -0.553 | 0.0534 | -0.969 | 0.0995 | -0.0115 | -0.158
3 | TACATCT | -0.131 | -0.162 | -2.04 | -2.82 | -0.00682 | -1.02 | -2.21 | -0.00461 | -0.286
4 | AGAAACC | 0.00506 | -0.0506 | 0.403 | 0.679 | 0.024 | 0.342 | -0.227 | -0.059 | 0.0554
5 | CCCCTGC | -0.18 | -0.129 | -0.475 | -0.752 | -0.0915 | -1.04 | -0.136 | -0.0634 | -0.101
6 | GTGAGGC | 0.00715 | -0.0107 | 0.345 | 0.911 | -0.02 | 1.58 | 0.054 | 0.142 | 0.105
7 | TCACGCT | -0.0705 | -0.0655 | -0.767 | -2.6 | 0.0225 | -1.26 | -0.135 | -0.0481 | -0.333
8 | CAGGATA | 0.115 | 0.0807 | 0.375 | 1.39 | 0.121 | 1.61 | 0.246 | -0.0612 | 0.0444
9 | ATAAGTT | -0.0296 | -0.0621 | -3.3 | -3.25 | -0.021 | -1.56 | -0.2 | -0.28 | -1.86
10 | GCTCGCT | 0.0175 | 0.128 | 0.111 | 0.292 | 0.0422 | -0.429 | 0.0133 | 0.252 | 0.0602
11 | CCGCGTT | -0.073 | -0.196 | -0.43 | -1.28 | -0.159 | -0.611 | -0.0989 | -0.0159 | -0.205
12 | TGAGATT | 0.088 | -0.0483 | 0.354 | -0.804 | 0.205 | 1.02 | -0.015 | 0.0185 | 0.0433
13 | TGATGGT | -0.33 | 0.0298 | 0.238 | 0.473 | 0.107 | 1.4 | -0.477 | 0.0131 | 0.0124
14 | ACTCCAT | 0.055 | -0.0201 | -0.133 | -0.862 | 0.00028 | -0.601 | -0.141 | -0.00415 | 0.039
15 | TCCGAGT | -0.00996 | -0.128 | 0.595 | 1.06 | 0.0405 | 1.11 | -0.0744 | 0.0028 | 0.0677
